Source: PMC7725785 (2020)

Legend:
Purified His-tagged MYC [1] = molecular target: T1, Purified His-tagged MYC (human, UniProt P01106); experiment: SPR; with TRIB3
Purified His-tagged MYC [2] = molecular target: T1, Purified His-tagged MYC; experiment: SPR; control (CTRL, without TRIB3)
Purified His-tagged MYC [3] = molecular target: T1, Purified His-tagged MYC; experiment: SPR; control (CTRL, without TRIB3); remark: listed apart in the source
Purified His-tagged MYC [4] = molecular target: T1, Purified His-tagged MYC; experiment: SPR; with TRIB3; remark: listed apart in the source

T1 sequence (P01106 whole entry): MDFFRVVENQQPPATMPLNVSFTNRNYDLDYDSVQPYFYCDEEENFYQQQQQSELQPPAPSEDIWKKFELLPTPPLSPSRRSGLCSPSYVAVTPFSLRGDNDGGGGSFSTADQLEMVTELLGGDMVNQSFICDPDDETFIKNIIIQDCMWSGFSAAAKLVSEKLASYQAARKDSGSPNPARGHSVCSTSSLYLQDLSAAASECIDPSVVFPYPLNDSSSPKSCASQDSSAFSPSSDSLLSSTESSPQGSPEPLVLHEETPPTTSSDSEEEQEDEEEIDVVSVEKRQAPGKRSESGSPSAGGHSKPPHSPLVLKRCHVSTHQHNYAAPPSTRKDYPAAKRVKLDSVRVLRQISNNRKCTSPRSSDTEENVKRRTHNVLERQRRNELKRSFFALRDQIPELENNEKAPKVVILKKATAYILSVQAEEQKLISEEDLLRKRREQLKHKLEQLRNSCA

B1: MAX protein (SPR) (natural protein)
chain: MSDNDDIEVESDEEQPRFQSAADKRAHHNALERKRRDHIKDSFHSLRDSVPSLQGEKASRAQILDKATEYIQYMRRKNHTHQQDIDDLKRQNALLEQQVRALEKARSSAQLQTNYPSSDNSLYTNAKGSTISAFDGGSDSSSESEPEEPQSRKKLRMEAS
Purified His-tagged MYC [1]
  koff: 0.000205 s⁻¹
Purified His-tagged MYC [2]
  koff: 0.0143 s⁻¹
Purified His-tagged MYC [3]
  Kd: 2.03 nM
Purified His-tagged MYC [4]
  Kd: 0.178 nM
